# Laboratory results taken from PubChem BioAssay AID2451 (National Center for Advancing Translational Sciences (NCATS), 2010).
# Out of some 290,000 compounds screened, about 2,100 (0.72%) were called active. The inconclusive results got no clear call from the source; some entries with a clear call stand among them for comparison. Calls come from the whole dose curve; as a rule, active = well fitted inhibition curve with a large enough effect; inconclusive = small, poorly fitted or top-dose-only effect, or effect the other way; inactive = flat fitted curve, though single readings scatter. A potency beside an inconclusive call is a rough fit, not a confirmed value.
# Target: Fructose-bisphosphate aldolase (Giardia intestinalis (strain ATCC 50803 / WB clone C6)) (UniProt A8B2U2)
# UniProt A8B2U2, sequence (A8B2U2 whole entry, looked up): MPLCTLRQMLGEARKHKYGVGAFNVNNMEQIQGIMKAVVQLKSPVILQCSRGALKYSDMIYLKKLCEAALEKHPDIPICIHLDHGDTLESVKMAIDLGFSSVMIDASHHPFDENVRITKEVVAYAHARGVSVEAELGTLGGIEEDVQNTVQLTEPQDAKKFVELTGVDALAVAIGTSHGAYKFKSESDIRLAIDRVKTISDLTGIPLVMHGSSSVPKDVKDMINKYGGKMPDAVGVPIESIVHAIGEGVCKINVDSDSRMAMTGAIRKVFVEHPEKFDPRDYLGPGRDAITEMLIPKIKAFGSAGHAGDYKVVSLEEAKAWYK
# Test: qHTS Assay for Inhibitors of Fructose-1,6-bisphosphate Aldolase from Giardia Lamblia; note: nearly all actives have a fitted effect of over 55% in size
# Conditions: purified Giardia FBPA; activity, negative = inhibition: at 59.6 µM (top of the series) unless noted
# Procedure, shortened: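 Giardia FBPA (40 nM reagent) was preincubated 10 min at RT with compound (up to 57.5 uM final), then substrate plus GAPDH/TPI/NAD/arsenate coupling system with diaphorase/resazurin was added; resorufin fluorescence (525/598 nm) was read after 20 min.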
# % is set by controls: 0 for no effect and ±100 for the full control effect; potency is the fitted concentration of half-maximal effect; tags give direction and shape of the fitted curve.
SMILES,Potency,"activity, negative = inhibition"
COc1ccc(C(CNCC(=O)Nc2ccccc2F)N(C)C)cc1 (configuration not stated),"inconclusive: 17.8 µM [inhibitor, partial curve]",–
CCOC(=O)CSc1ccc(C(=O)N2CCC3(CC2)OCCO3)cc1[N+](=O)[O-],–,inactive: 6.72%
Oc1ccc2ccccc2c1C=NC1CCCCC1,"inconclusive: 19.9 µM [inhibitor, partial curve]",–
Cc1cccc(Nc2nc(NCc3ccco3)c3ccccc3n2)c1,"inconclusive: 15.8 µM [inhibitor, single point]",–
O=[N+]([O-])c1ccc(CN2CCN(c3ncccn3)CC2)cc1,"inconclusive: 20 µM [inhibitor, partial curve]",–
CN(C)S(=O)(=O)c1cccc(NC(=S)Nc2cccc3cnccc23)c1,active: 2.51 µM,–
Cc1cccc(N2C(=O)/C(=C/c3ccc(CN(CCC#N)S(C)(=O)=O)o3)C(=O)NC2=S)c1,"inconclusive: 22.3 µM [inhibitor, partial curve]",–
COc1ccc(Br)cc1CN1CCN(C(=O)c2ccco2)CC1,active: 28.2 µM,–
Cc1csc(NC(=O)CCNC(=O)c2ccccc2Cl)n1,–,inactive: 2.19%
Nc1ccccc1C(=O)N=Nc1[nH]c(N)c2ccccc12,–,inactive: 20.9%
COc1ccc(Br)cc1C1CC(=O)N2CN(Cc3ccccc3)CSC2=C1C#N (configuration not stated),"inconclusive: 2.23 µM [inhibitor, full curve]",–
Cc1c(N)cc(N)cc1C(=O)O,active: 4.46 µM,–
O=C(NCCNC1CCC(c2ccccc2)CC1)c1cccs1 (configuration not stated),"inconclusive: 17.7 µM [inhibitor, single point]",–
O=C(NCc1ccccc1)NC1(C(=O)N2CCCC2)CCCCC1,"inconclusive: 3.55 µM [activator, partial curve]",–
Cn1c(/C(C#N)=C/c2ccncc2)nc2ccccc21,–,inactive: -0.296%
O=C(COc1ccccc1F)Nc1c2c(nn1-c1ccccc1)CS(=O)(=O)C2,–,inactive: 7.18%
COC(=O)N/N=C\c1c(C)[nH]n(-c2ccccc2)c1=O,"inconclusive: 17.7 µM [inhibitor, single point]",–
COC1=C(Nc2ccccc2OC)C(=O)c2ccccc2C1=O,"inconclusive: 17.7 µM [inhibitor, partial curve]",–
Cc1cc(C)nc(NS(=O)(=O)c2ccc(NC(=O)c3ccc(S(=O)(=O)N(C)C)cc3)cc2)n1,"inconclusive: 17.8 µM [inhibitor, single point]",–
COc1cccc(/C=C/c2ccccn2)c1O,–,inactive: -11.5%
COc1cc(CNCc2cc(OC)ccc2OC)cc(OC)c1,"inconclusive: 12.6 µM [inhibitor, partial curve]",–
CC1=C(C#N)c2nc(N)c(C#N)c(C)c2/C1=C\c1ccc(OCC(=O)O)c(Cl)c1,active: 19.9 µM,–
COCCN1CSC(=S)N(Cc2ccco2)C1,"inconclusive: 22.3 µM [inhibitor, single point]",–
N#Cc1c(-c2cccc(Cl)c2)[nH]c(=S)[nH]c1=O,"inconclusive: 7.92 µM [inhibitor, single point]",–

SMILES,Potency,"activity, negative = inhibition"
O=C(Nc1ccc(F)cc1)Oc1ccc[nH]c1=O,"inconclusive: 1.41 µM [inhibitor, full curve]",–
Cc1c(C)c2c(C)[nH]nc2oc1=O,–,inactive: 0.447%
COc1cccc(C=Nc2ccc3c(c2)OCCO3)c1O,"inconclusive: 15.8 µM [inhibitor, partial curve]",–
NC(=S)N/N=C1\c2ccccc2-c2c(C(=O)O)cccc21,active: 3.98 µM,–
CC(C)(C)CC(C)(C)NC(=S)Nc1ccc2nc(-c3ccccn3)c(-c3ccccn3)nc2c1,"inconclusive: 3.15 µM [inhibitor, partial curve]",–
CCN(CC)CCN1C(=O)C(O)=C(C(C)=O)C1c1ccccc1[N+](=O)[O-] (configuration not stated),"inconclusive: 17.7 µM [inhibitor, partial curve]",–
COc1ccc2cc(C(c3nnnn3C3CCCC3)N3CCc4ccccc4C3)c(=O)[nH]c2c1 (configuration not stated),"inconclusive: 14.1 µM [inhibitor, partial curve]",–
Cn1c(C(=O)NCCCN2CCc3ccccc3C2)cc2c(=O)n(C)c3ccccc3c21,"inconclusive: 15.8 µM [inhibitor, single point]",–
CCOc1cc(/C=C2\CCn3c2nc2cc(Cl)ccc2c3=O)ccc1O,"inconclusive: 35.5 µM [inhibitor, single point]",–
CCOc1ccc2nc(NC(=O)c3ccccn3)sc2c1,"inconclusive: 15.8 µM [inhibitor, partial curve]",–
CC1CCCCC1NS(=O)(=O)c1ccc(S(=O)(=O)N2CCN(CCC#N)CC2)cc1 (configuration not stated),–,inactive: -3.55%
CC(=O)Nc1cccc(-n2c(=O)n(Cc3ccccc3)c(=O)c3[nH]cnc32)c1,"inconclusive: 28.2 µM [inhibitor, partial curve]",–
Cc1ccc(/C=C/C(=O)NCc2ccccn2)o1,–,inactive: -10.5%
CC(C)N1CC=C2C(C#N)=C(N)C(C#N)(C#N)C(c3ccccc3)C2C1 (configuration not stated),"inconclusive: 17.7 µM [inhibitor, partial curve]",–
CC1C(=O)OC2C1CCC1(C)CCC(=O)C(C)C21 (configuration not stated),–,inactive: 8.11%
CCOC(=O)CC1=C(C(=O)OCC)C(c2cc(OC)c(OC)cc2OC)C(C#N)=C(N)O1 (configuration not stated),"inconclusive: 3.54 µM [inhibitor, partial curve]",–
CC(=O)N1CCc2cc(S(=O)(=O)N3c4ccccc4CC3C)ccc21 (configuration not stated),–,inactive: 6.76%
CC(C)C(=O)NC(c1cccs1)c1cc([N+](=O)[O-])c2cccnc2c1O (configuration not stated),"inconclusive: 44.6 µM [inhibitor, single point]",–
CCC(C)(C)n1nnnc1C(c1ccc2ncccc2c1)N1CCN(c2ccc(O)cc2)CC1 (configuration not stated),"inconclusive: 15.8 µM [inhibitor, partial curve]",–
Oc1c(Cl)cc(Cl)cc1/C=N/Nc1ncc(Br)cn1,–,inactive: 4.19%
O=C(Nc1ccccc1)c1ccccc1NS(=O)(=O)c1ccc(Cl)s1,"inconclusive: 19.9 µM [activator, partial curve]",–
CCOc1ccc(N=C/C=C/c2ccccc2)c(O)c1,"inconclusive: 3.98 µM [inhibitor, full curve]",–
COc1ccc(N2CCN(C(c3cc(OC)ccc3OC)c3nnnn3Cc3ccco3)CC2)cc1 (configuration not stated),"inconclusive: 15.8 µM [inhibitor, partial curve]",–
